{"source": "PubChem BioAssay AID686979", "about": "(National Center for Advancing Translational Sciences (NCATS), 2013)", "note": "Several values for one entry are separate records, joined by “and”; a condition that tells them apart may be missing. Equal entries are not always repeated. Among all 420,000 compounds or so, about 50,000 (12%) were called active. The shares of active, inactive and inconclusive entries below differ from those in the screen. Calls follow the shape of the dose curve; as a rule, active = well fitted inhibition curve with a large enough effect; inconclusive = small, poorly fitted or top-dose-only effect; inactive = flat fitted curve, though single readings scatter. Potencies of inconclusive entries are left out as doubtful fits. % is scaled to controls: 0 for no effect and ±100 for the full control effect; potency is read from the fitted curve at half-maximal effect; tags tell the direction and shape of the fitted curve.", "data": [{"test": "qHTS for Inhibitors of human tyrosyl-DNA phosphodiesterase 1 (TDP1): qHTS in cells in presence of CPT; also: nearly all actives have a fitted effect of over 55% in size", "details": "chicken DT40 Tdp1-/-;hTDP1 cells + 20 nM CPT, ATP luminescence, 48 h; activity change, negative = growth inhibition: at 46.2 µM (top of the series) unless noted", "summary_of_the_method": "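Chicken DT40 Tdp1-/- cells stably complemented with human TDP1 were seeded at 400 cells/well in medium containing 20 nM camptothecin, exposed to pin-transferred compounds, and grown at 37 °C for at least 48 hr. Viability was read as ATP luminescence.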", "values": [{"smiles": "Cc1cc2oc(=O)sc2cc1NS(=O)(=O)c1cccc2cccnc12", "Potency": "inconclusive [inhibitor, single point]"}, {"smiles": "CCCCCCCNC(=O)C1(CC2CC(c3ccc(Cl)cc3)=NO2)CCN(C(=O)CCCCCBr)CC1", "note": "(stereo unspecified)", "Potency": "active: 16.4 µM"}, {"smiles": "COc1cc2[nH]c(=O)n(CCCCCC(=O)NCCc3c[nH]c4ccccc34)c(=O)c2cc1OC", "Potency": "inconclusive [inhibitor, single point]"}, {"smiles": "CCOC(=O)C1(C)CCN1C(=O)c1cccc(OC(F)(F)F)c1", "note": "(stereo unspecified)", "Potency": "inconclusive [inhibitor, single point]"}, {"smiles": "CCCC(=O)NC(Nc1cccc(C(F)(F)F)c1)C(Cl)(Cl)Cl", "note": "(stereo unspecified)", "Potency": "inconclusive [inhibitor, single point]"}, {"smiles": "Cc1ccc(/C=C/C(=O)NCCc2ccccc2)o1", "Potency": "active: 5.8 µM"}, {"smiles": "CN(Cc1ccccc1)C(=O)COC(=O)c1ccc(Cl)cc1N", "Potency": "active: 10.3 µM"}, {"smiles": "COc1ccc(-c2c3c(cc4ncn(Cc5ccccc5)c24)COC3=O)cc1", "Potency": "inconclusive [inhibitor, single point]"}, {"smiles": "CCOC(=O)c1ccc(N2C(=O)c3n[nH]c(C)c3C2c2cccc(Br)c2)cc1", "note": "(stereo unspecified)", "Potency": "inconclusive [inhibitor, single point]"}, {"smiles": "O=C(c1ccc(N2CCN(C(=O)c3ccccc3)CC2)cc1)c1cccc(F)c1", "Potency": "inconclusive [inhibitor, single point]"}, {"smiles": "COc1cc2c(cc1O)CCN[C@]21CS[C@@H]2c3c(OC(C)=O)c(C)c4c(c3[C@H](COC1=O)N1[C@@H]2[C@H]2c3c(cc(C)c(OC)c3O)C[C@@H]([C@@H]1O)N2C)OCO4", "Potency": "active: 6.7 nM and active: 4.3 nM"}, {"smiles": "Cn1c(=O)c2c(ncn2CC(=O)NC2CCCCC2)n(C)c1=O", "Potency": "inconclusive [inhibitor, full curve, poor fit]"}, {"smiles": "COc1ccc(C(=O)Nc2ccccc2N2CCOCC2)cc1S(=O)(=O)N1CCCC1", "Potency": "inconclusive [inhibitor, single point]"}, {"smiles": "CCC(=O)Nc1ccc(C(=O)NNC(=O)CCCCC(=O)NNC(=O)c2ccc(NC(=O)CC)cc2)cc1", "Potency": "inactive"}, {"smiles": "CC(=O)c1ccc(NC(=O)COc2ccccc2C(=O)Nc2ccc(C)cn2)cc1", "Potency": "inactive"}, {"smiles": "CCn1nc(C(=O)OCc2cccc(S(=O)(=O)N(C)C)c2)c2ccccc2c1=O", "activity change, negative = growth inhibition": "inconclusive: -31.3% [inhibitor]"}, {"smiles": "Cc1ccc(NC(=O)COC(=O)CCn2c(C)csc2=O)cc1S(=O)(=O)N1CCOCC1", "Potency": "inactive"}, {"smiles": "COc1ccc(OC)c(Nc2nc(N)nc(-c3cc4ccccc4o3)n2)c1", "Potency": "inconclusive [inhibitor, single point]"}, {"smiles": "O=C1C2C3C=CC(C3)C2C(=O)N1CCN1CCN(Cc2ccc([N+](=O)[O-])cc2)CC1", "note": "(stereo unspecified)", "Potency": "inconclusive [inhibitor, single point]"}, {"smiles": "CN(C)CCN(C)C1CN(Cc2ccc(F)cc2)S(=O)(=O)C1", "note": "(stereo unspecified)", "Potency": "inactive"}, {"smiles": "CN(Cc1ccccc1)C(=O)COC(=O)CCC(=O)c1ccc(F)cc1", "Potency": "inactive"}, {"smiles": "COc1ccc(C(=O)c2cn(Cc3ccccc3F)c3cc4c(cc3c2=O)OCO4)cc1", "Potency": "inconclusive [inhibitor, single point]"}, {"smiles": "NC(=O)c1ccc(NC(=O)CN2CCN(c3ccccc3)CC2)cc1", "Potency": "inactive"}, {"smiles": "CC1CCN(S(=O)(=O)c2ccc3c(c2)oc(=O)n3CC(=O)NCc2ccc3c(c2)OCO3)CC1", "Potency": "inconclusive [inhibitor, partial curve]"}, {"smiles": "O=C(CSc1ncnc2nc[nH]c12)c1ccc(Cl)cc1", "Potency": "inconclusive [inhibitor, single point]"}, {"smiles": "O=C(CN1CCN(S(=O)(=O)c2ccc(Cl)c(Cl)c2)CC1)N1CCCCC1", "Potency": "inconclusive [inhibitor, single point]"}, {"smiles": "Cc1cc(N2CCN(S(=O)(=O)c3ccc4ccccc4c3)CC2)n2ncnc2n1", "Potency": "inconclusive [inhibitor, partial curve]"}, {"smiles": "CC(C)NC(=O)N1CC[C@@]2(CCCN(S(=O)(=O)c3ccccc3)C2)C1", "Potency": "inactive"}, {"smiles": "CCc1nc2ccccc2n1Cc1ccc(OC)c(OC)c1", "Potency": "inconclusive [inhibitor, single point]"}, {"smiles": "COc1ccc(Cc2noc(CN3CCC(c4ccncc4)CC3)n2)cc1OC", "Potency": "active: 20.6 µM"}, {"smiles": "CCN(CC(=O)NCc1cccs1)C(=O)c1ccc(NS(=O)(=O)c2ccc(F)cc2)cc1", "Potency": "inactive"}, {"smiles": "Cn1c(CNC(=O)c2ccc(F)cc2)nc2ccccc21", "Potency": "inconclusive [inhibitor, single point]"}, {"smiles": "Fc1ccc(Br)cc1SCCc1ccncc1", "Potency": "inconclusive [inhibitor, single point]"}, {"smiles": "CCOc1ccc(CN(C)CC(=O)NCc2ccccc2Cl)cc1", "Potency": "inconclusive [inhibitor, single point]"}, {"smiles": "COc1ccc(-n2nc([N+](=O)[O-])c(=NCc3cccnc3)n2O)cc1", "Potency": "active: 16.4 µM"}, {"smiles": "NNC(=O)c1ccc(Cn2cccn2)o1", "Potency": "inactive"}, {"smiles": "O=C(c1ccc(CSCc2ccccc2F)o1)N1CCN(c2ccc(N3CCOCC3)nn2)CC1", "Potency": "inconclusive [inhibitor, partial curve]"}, {"smiles": "Cc1c(Cl)cccc1NC(=O)CSc1nc2ncc(Cl)cc2[nH]1", "Potency": "inconclusive [inhibitor, single point]"}, {"smiles": "CCc1ccc(-c2nc(CN3CCC(C(=O)NCCc4ccc(OC)c(OC)c4)CC3)c(C)o2)cc1", "Potency": "active: 16.4 µM"}, {"smiles": "O=c1[nH]c2cnn(-c3ccccc3)c2c(=O)n1O", "Potency": "inconclusive [inhibitor, partial curve]"}, {"smiles": "COc1cccc(CNc2nc(NCc3ccccc3OC)nc3ccsc23)c1", "Potency": "active: 9.2 µM"}, {"smiles": "O=C(NCc1ccccc1)c1ccco1", "Potency": "inactive"}, {"smiles": "CCCC(=O)NC1CCc2cc(OC)c(OC)c(OC)c2-c2ccc(OC)c(=O)cc21", "note": "(stereo unspecified)", "Potency": "active: 0.0164 µM"}, {"smiles": "COc1ccc(NC(=O)Nc2nc3ccccc3s2)cc1", "Potency": "inconclusive [inhibitor, single point]"}, {"smiles": "O=C(Nc1cc(C(F)(F)F)cc(C(F)(F)F)c1)O[C@@H]1c2ccccc2[C@@H]2Cc3csc[n+]3[C@H]12", "Potency": "inactive"}, {"smiles": "Cc1ccc(-c2csc3ncnc(SCc4ccc(C(=O)O)cc4)c23)cc1", "Potency": "inactive"}, {"smiles": "O=C(N/N=C/c1cn(-c2ccccc2)nc1-c1ccc(F)cc1)c1ccc(Br)o1", "Potency": "active: 20.6 µM"}, {"smiles": "Cn1nc(C(=O)N2CCN(S(=O)(=O)/C=C/c3ccccc3)CC2)c2ccccc2c1=O", "Potency": "inactive"}, {"smiles": "N[C@@H](CCS(=O)O)C(=O)O", "Potency": "inconclusive [inhibitor, single point]"}, {"smiles": "COc1ccc(C(=O)N2CCN(c3ccccc3)CC2)cc1S(=O)(=O)NC1CC1", "Potency": "inactive"}, {"smiles": "O=C1/C(=C/c2cccc(Cl)c2)SC(=S)N1CCC(=O)N1CCCCC1CCO", "note": "(stereo unspecified)", "Potency": "inconclusive [inhibitor, single point]"}, {"smiles": "COc1ccccc1CCNC(=O)c1ccc(NC(=O)CC2SC(N3CCCC3)=NC2=O)cc1", "note": "(stereo unspecified)", "Potency": "inactive"}, {"smiles": "CCCN(C(=O)CSc1n[nH]c(-c2ccc(OC)cc2)n1)c1c(N)n(Cc2ccccc2)c(=O)[nH]c1=O", "Potency": "inactive"}, {"smiles": "COc1ccccc1N1CCN(c2cc(=O)n(-c3ccc(Cl)cc3)c(=O)[nH]2)CC1", "Potency": "inconclusive [inhibitor, single point]"}, {"smiles": "Cc1ccc(S(=O)c2ccc(C)cc2)cc1", "Potency": "inactive"}, {"smiles": "Cc1cccc(NC(=O)Nc2ccccc2)n1", "Potency": "inactive"}, {"smiles": "CCc1c(C)sc(NC(=O)c2ccoc2C)c1C(N)=O", "Potency": "inconclusive [inhibitor, single point]"}, {"smiles": "CCOC(=O)c1ccccc1NC(=O)CSc1nc2ccncc2[nH]1", "Potency": "inconclusive [inhibitor, single point]"}, {"smiles": "CCCOc1ccc(F)cc1-c1cc(C(=O)NCc2ccccc2)[nH]n1", "Potency": "inconclusive [inhibitor, single point]"}, {"smiles": "COc1ccc(CNc2nc3ccccc3n2Cc2ccccc2)cc1OC", "Potency": "inconclusive [inhibitor, single point]"}, {"smiles": "COc1ccccc1C(=O)NCCC(=O)N(C)CC(=O)Nc1ccc(Cl)cc1", "Potency": "inactive"}, {"smiles": "Cc1cccc(N2CCN(C(=S)Nc3ccc4nc(N5CCN(C)CC5)cc(C)c4c3)CC2C)c1", "note": "(stereo unspecified)", "Potency": "inconclusive [inhibitor, single point]"}, {"smiles": "Cc1ccc(CNC(=O)c2nc(SCc3ccccc3F)ncc2Cl)cc1", "Potency": "inconclusive [inhibitor, single point]"}, {"smiles": "O=c1cc(O)c2c(=O)n(C3CCCCC3)c3ccccc3c2o1", "Potency": "inconclusive [inhibitor, single point]"}, {"smiles": "CCCCn1c(SCC(=O)Nc2sc3c(c2C(N)=O)CCC3)nnc1-c1ccccc1", "Potency": "inconclusive [inhibitor, single point]"}, {"smiles": "CC(=O)Nc1ccc(C(=O)NCC2(N3CCCCC3)CCCCC2)cc1", "activity change, negative = growth inhibition": "inconclusive: -42.7% [inhibitor]"}, {"smiles": "CC1(C(=O)NS(=O)(=O)c2cccc(OC(F)F)c2)CCN1C(=O)Cc1ccccc1", "note": "(stereo unspecified)", "Potency": "inactive"}, {"smiles": "COc1cc(Cn2c3ccc(NC(=O)CC(C)C(F)(F)F)cc3c(=O)n2C)ccc1F", "note": "(stereo unspecified)", "Potency": "inconclusive [inhibitor, single point]"}, {"smiles": "O=C1OCC(CC2=C(O)C(=O)OC2)=C1O", "Potency": "inactive"}, {"smiles": "COc1cccc(/C=C/c2nc3c(cnn3-c3ccccc3)c(=O)[nH]2)c1", "Potency": "inconclusive [inhibitor, partial curve]"}, {"smiles": "C[C@H](CO)N1C[C@H](C)[C@@H](CN(C)C(=O)Nc2ccc(C(F)(F)F)cc2)Oc2ccc(NS(=O)(=O)c3cccs3)cc2C1=O", "Potency": "inconclusive [inhibitor, single point]"}]}]}
